Assay results from paper PMC4336329 (PLoS ONE, 2015).
The campaign covered roughly 310,000 compounds. About 14,000 (4.5%) showed an effect of 50% or more. Effects have a minus sign here. Some of the results follow.

The compounds below were run against human ether-à-go-go-related gene (hERG) potassium channel (human, UniProt Q12809) (assay: primary screen, population patch clamp on CHO cells stably expressing hERG).
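Note: peak tail current of the secondary pulse compared with the same well before compound.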

human ether-à-go-go-related gene (hERG) potassium channel, sequence (Q12809 whole entry, looked up): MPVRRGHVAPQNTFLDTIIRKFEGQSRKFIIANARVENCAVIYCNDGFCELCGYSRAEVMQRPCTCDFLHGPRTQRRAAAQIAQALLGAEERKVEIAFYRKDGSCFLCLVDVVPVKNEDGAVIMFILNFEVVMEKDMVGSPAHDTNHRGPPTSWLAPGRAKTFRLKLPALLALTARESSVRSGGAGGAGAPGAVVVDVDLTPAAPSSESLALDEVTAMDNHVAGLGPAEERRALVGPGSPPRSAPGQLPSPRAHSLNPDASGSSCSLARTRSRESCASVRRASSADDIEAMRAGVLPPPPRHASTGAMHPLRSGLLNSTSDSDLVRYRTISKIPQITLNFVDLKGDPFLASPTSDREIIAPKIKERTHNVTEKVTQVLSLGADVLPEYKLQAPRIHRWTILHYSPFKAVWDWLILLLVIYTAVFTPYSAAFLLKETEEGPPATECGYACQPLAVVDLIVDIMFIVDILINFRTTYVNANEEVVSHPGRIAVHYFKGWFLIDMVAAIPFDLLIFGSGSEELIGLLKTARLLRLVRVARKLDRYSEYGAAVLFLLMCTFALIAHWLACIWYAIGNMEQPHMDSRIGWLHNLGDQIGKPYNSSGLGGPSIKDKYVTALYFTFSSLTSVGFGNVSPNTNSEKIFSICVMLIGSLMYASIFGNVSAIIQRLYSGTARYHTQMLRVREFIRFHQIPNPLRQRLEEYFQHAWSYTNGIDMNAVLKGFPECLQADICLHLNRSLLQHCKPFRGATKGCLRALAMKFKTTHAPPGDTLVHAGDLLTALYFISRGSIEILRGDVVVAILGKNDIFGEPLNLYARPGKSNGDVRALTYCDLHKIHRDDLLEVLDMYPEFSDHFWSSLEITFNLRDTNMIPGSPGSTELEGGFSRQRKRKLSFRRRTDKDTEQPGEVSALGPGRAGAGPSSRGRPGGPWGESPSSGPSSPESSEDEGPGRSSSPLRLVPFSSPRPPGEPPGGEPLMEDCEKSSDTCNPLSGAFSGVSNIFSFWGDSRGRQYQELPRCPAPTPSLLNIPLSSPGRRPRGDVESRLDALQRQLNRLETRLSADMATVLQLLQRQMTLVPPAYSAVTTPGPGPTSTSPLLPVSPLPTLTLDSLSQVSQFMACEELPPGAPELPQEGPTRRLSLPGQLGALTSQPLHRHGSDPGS

Structure (SMILES) | hERG current change (%, negative = inhibition) at 10uM
COc1ccc(NC(=S)N(CCCN2CCN(C)CC2)Cc2cccs2)cc1 | -53.4%
CC1SC(c2ccc(F)cc2)N(CCc2ccccc2)C1=O (centres unmarked) | -1.76%
COc1cc(C(=O)N2CCCC(c3nc(-c4cccs4)no3)C2)cc(OC)c1OC (centres unmarked) | -18.8%
CCOC(=O)[C@H]1[C@H]2COc3ccc(Cl)cc3[C@@H]2N2C(=O)CN(CC3CCCO3)C(=O)[C@@]12C (some centres unmarked) | 13.5%
COC(=O)c1nc(NC(=O)C(C)C)n[nH]1 | -19.1%
CC1CCc2c(sc(NC(=O)CSc3ncn[nH]3)c2C#N)C1 (centres unmarked) | 18.4%
CC(=O)Nc1ccc(S(=O)(=O)N2CCC(C(=O)NCCc3ccc(Cl)cc3)CC2)cc1 | 5.7%
O=C(CCc1nc2ccccc2s1)Nc1cccnc1 | 1.38%
CC(=O)c1c(O)cc(O)c(C(C)=O)c1O | 5.57%
CCOC(=O)NC(=O)/C(C#N)=N/Nc1c(F)cccc1F | 4.72%
Cc1ccc(F)c([C@H]2C3C=CCC(c4ccccc4)C3C(=O)N2Cc2ccccc2)c1 (some centres unmarked) | 6.8%
CN(CC(=O)Nc1ccccc1Br)C(=O)c1cccn1C | 16.2%
Cc1oc(-c2cccs2)nc1CS(=O)CC(=O)NCCc1ccccc1 (centres unmarked) | -22.7%
Cc1cc(NC(=O)COC(=O)CCS(=O)(=O)c2cc(Cl)ccc2Cl)no1 | 2.03%
COC(=O)N/N=C/c1ccc(OC(=O)c2ccco2)c(OC)c1 | 17.8%
CCN1CCC(NC(=O)Nc2ccc(F)cc2)CC1 | 7.3%
CC(OC(=O)C(C)N1C(=O)C2C3C=CC(C4CC34)C2C1=O)C(=O)c1ccccc1 (centres unmarked) | 1.51%
CCCCN=c1scc(-c2ccc3c(c2)NC(=O)CO3)n1N=C1CCCC1 | 9.95%
O=C(NCc1ccc(F)cc1)C1CCCN1S(=O)(=O)c1cccc2nsnc12 (centres unmarked) | -4.49%
COc1ccc(-c2nc(Cn3c(SCc4ccc(C)cc4)nc4ccncc43)c(C)o2)cc1OC | -52%
O=C(CCc1ccccc1)NN1C(=O)C2C3C=CC(C3)C2C1=O (centres unmarked) | 16.4%
CCOc1cc(N2CCOCC2)c(OCC)cc1NC(=O)CN1C(=O)NC(CC(C)C)C1=O (centres unmarked) | -70.4%
CCN1C(=O)[C@H]2[C@@H](c3ccc(-c4ccc(Cl)c(Cl)c4)cc3)N[C@@](CC(C)C)(C(=O)OC)[C@H]2C1=O.O=C(O)C(F)(F)F | 11.9%

Structure (SMILES) | hERG current change (%, negative = inhibition) at 10uM
Cn1c(CCCOc2ccc(Cl)cc2Cl)nnc1SCC(=O)Nc1ccc(F)c(Cl)c1 | -15.5%
COc1ccc(OC)c(S(=O)(=O)NC2CCCCNC2=O)c1 (centres unmarked) | 15.2%
O=C(NC(O)C(=O)c1ccccc1)c1ccccn1 (centres unmarked) | 24.2%
COc1ccc(C(=O)C2CCN(C(=S)NCCc3ccccc3)CC2)cc1 | -3.53%
COC(=O)C(Cc1ccccc1)NC(=O)CSc1nc(C)cc(=O)[nH]1 (centres unmarked) | 6.85%
Nc1nc(Nc2ccccc2Cl)cc(=O)[nH]1 | 4.95%
Cc1ccc(S(=O)(=O)n2cc(-c3ccccc3)c(N)n2)cc1 | 1.65%
NNC(=O)COc1ccccc1[N+](=O)[O-] | 65.3%
COc1ccc(-n2c(SCC3CNC(=O)O3)nnc2-c2ccc(Cl)cc2)cc1 (centres unmarked) | -54.8%
Nc1ccc(SC(F)(F)F)cc1C(=O)c1ccccc1 | 0.508%
N#CC1=C(N)Oc2c(c(=O)oc3ccccc23)C1c1ccc(OC(=O)N2CCOCC2)cc1 (centres unmarked) | -17.2%
O=C(CNC(=O)C1CCCCC1)NCCCO | 12.7%
CCOc1ccccc1CN1CCN(Cc2cccc3nonc23)CC1CCO (centres unmarked) | -73.3%
Cn1ncc(Cl)c1C(=O)N1CCN(c2ccccc2)CC1 | 15.7%
CCC(=O)Nc1cccc2c1C(=O)N(C)C2=O | 2.13%
Cn1c(CNC(=O)c2ccco2)nnc1SCC(=O)Nc1ccc(Br)cc1F | -43.4%
CCCCNC(=O)C1(NC(=O)Nc2ccc(C)cc2)CCCCC1 | 15.5%
COc1ccc(NC(=O)CSc2nnc(C)n2C2CCCCC2)cc1 | -16.6%
Cc1cc(C)n2ncc(C(=O)NCc3ccccc3)c2n1 | -6.85%
Cc1cc(-c2csc3ncnc(N4CCN(C)CC4)c23)cc(C)c1C | -65.2%
O=C(CN(C(=O)CNC(=O)c1cccs1)c1ccccc1F)NC1CCCCC1 | 9.96%
O=C(CSc1ncnc2scc(-c3ccc(F)cc3)c12)c1ccc2c(c1)OCCO2 | 4.02%
COc1ccc(C(=O)Nc2ccccc2C(=O)NCc2cccnc2)cc1OC | -4.86%

Structure (SMILES) | hERG current change (%, negative = inhibition) at 10uM
COc1cc(C)ccc1OCCCCOc1ccccc1C(C)=O | 3.3%
O=C(Nc1ccccc1N1CCOCC1)c1cc2c(s1)CCCCC2 | 6.4%
N/C(Cc1ccc([N+](=O)[O-])cc1)=N\OC(=O)Cc1ccc(Cl)cc1 | -4.39%
COc1ccc(-c2nnc(CSc3nc4ccccc4c(=O)n3CC(C)C)o2)cc1OC | -1.97%
Cl.NNCc1cccc(O)c1 | 5.61%
COCCn1c(SC(C)C(=O)Nc2ncc(Cl)cc2Cl)nc2ccccc21 (centres unmarked) | -29.8%
Cc1cc(C)c2nc(C(F)(F)F)nc(N3CCN(C(=O)c4ccco4)CC3)c2c1 | 6.1%
Cc1c(Cl)cccc1NC(=O)CCC(=O)NNC(=O)c1ccccc1 | 7.19%
COc1ccc(-c2noc(-c3ccccc3Cl)n2)cc1OC | 13.8%
Cc1nc2sc(C(c3cccs3)N3CCN(c4ccccc4)CC3)c(O)n2n1 (centres unmarked) | -9.85%
O=C(CCc1nc2ccccc2[nH]1)Nc1ccccc1 | -4.56%
CCOC(=O)c1ccc(CNC(=O)c2n[nH]c(=O)c3ccccc23)o1 | 12.5%
CN(C)/C=N/c1nc2ncc(-c3ccc(Cl)cc3)c(/N=C/N(C)C)n2n1 | 9.96%
CN1CCN(c2oc(COc3ccc(-c4ccccc4)cc3)nc2C#N)CC1 | -19%
COc1cccc(C2c3c(oc4ccccc4c3=O)C(=O)N2CCCN2CCOCC2)c1 (centres unmarked) | -21.1%
NC(CSC12CC3CC(CC(C3)C1)C2)C(=O)O (centres unmarked) | 15%
COc1ccc(NC(=O)NCCCN2CCN(c3cc(C)ccc3C)CC2)cc1 | -92.2%
CCCc1cc(=O)[nH]c(SCC(=O)Nc2ccc3c(c2)CCC3)n1 | 22.5%
Cc1cc(C(=O)N2CCN(CCc3ccccc3)CC2)no1 | -6.68%
CCC(C)c1ccc(NC(=S)NCc2cccs2)cc1 (centres unmarked) | 1.58%
O=S(=O)(c1cccc(Cl)c1)N1CN(CC2CCCO2)c2nc3ccccc3nc21 (centres unmarked) | -10.2%
CCOC(=O)C1=C(C)NC(=O)NC1c1ccc(OCC(=O)OC)c(OC)c1 (centres unmarked) | -6.24%
COc1cccc2cc(C(=O)NCc3ccc(C)cc3)c(=N)oc12 | -13.3%

Structure (SMILES) | hERG current change (%, negative = inhibition) at 10uM
COc1ccc(N2C(=O)CC(N3CCN(S(=O)(=O)c4c(F)cccc4F)CC3)C2=O)cc1OC (centres unmarked) | 3.4%
CN(C)C(=S)NC1CCS(=O)(=O)C1 (centres unmarked) | 5.62%
Cc1ccc2c(cnn2C(=O)CCC(=O)N2CCCCC2C)c1 (centres unmarked) | -7.08%
O=C(NN=C1CCCC1)c1n[nH]c2c1CCCC2 | 26.7%
COC(=O)c1ccc(-c2nc(O)c3cnccn23)cc1 | 14.1%
COc1cc(CNCc2ccccn2)ccc1OCc1ccc(Cl)cc1.Cl | -56.8%
CNS(=O)(=O)c1cccc(C(=O)OCC(=O)N2CC(C)OC(C)C2)c1 (centres unmarked) | 26.3%
CC1CCN(CC(=O)Nc2ccc(N3CCCCCC3)cc2)CC1.O=C(O)C(=O)O | -14.1%
Nc1nonc1-n1nnc(C(=O)N/N=C/c2ccccn2)c1CNc1ccccc1 | -5.99%
COCCCNC(=O)c1c(NC(=O)c2ccco2)n(Cc2ccccc2)c2nc3ccccc3nc12 | -5.81%
CC(NC(=S)NC1CCCCC1)C(c1ccccc1)N1CCOCC1 (centres unmarked) | 12.5%
CCOc1ccc2nc(N3CCCC(C(=O)N4CCN(CC)CC4)C3)sc2c1 (centres unmarked) | -28.9%
CCOC(=O)N1CCN(C(=O)C2CCC(=O)N(CCc3ccccc3)C2)CC1 (centres unmarked) | -0.101%
Cn1c(=O)c(/C(N)=N/OC(=O)c2ccccc2)cn(-c2ccccc2)c1=O | 6.48%
Cc1ccc(NC(=O)c2ccccc2)s1 | 1.37%
O=C(COC(=O)C1CC2CCCC(C1)C2=O)NNC(=O)c1ccc([N+](=O)[O-])cc1 (centres unmarked) | -21%
COCCCNC(=O)c1nc2c(nnn2Cc2cc(C)ccc2C)c(=O)[nH]1 | 1.91%
COC(=O)C1=C(c2ccc(OC(F)(F)F)cc2)C[C@@H]2CC[C@H]1N2C(=O)N1CCOCC1 | -29.4%
C=CCOC(=O)/C(=C\c1ccccc1)NC(=O)c1ccco1 | 1.97%
O=C(Nc1nc2c(s1)CCCC2)c1cccc(S(=O)(=O)N2CCCc3ccccc32)c1 | 12.8%
